This is an account of results in a collection of fitness landscapes (doi:10.1126/science.1257360).

B1: PhoQ; a variant is named by its letters at X, in order, P23837 (parent)
chain: MKKLLRLFFPLSLRVRFLLATAAVVLVLSLAYGMVALIGYSVSFDKTTFRLLRGESNLFYTLAKWENNKLHVELPENIDKQSPTMTLIYDENGQLLWAQRDVPWLMKMIQPDWLKSNGFHEIEADVNDTSLLLSGDHSIQQQLQEVREDDDDAEMTHSVAVNVYPATSRMPKLTIVVVDTIPVELKSSYMVWSWFIYVLSANLLLVIPLLWVAAWWSLRPIEALAKEVRELEEHNRELLNPATTRELTSLVRNLNRLLKSERERYDKYRTTLTDLTHSLKTPLXXLQXXLRSLRSEKMSVSDAEPVMLEQISRISQQIGYYLHRASMRGGTLLSRELHPVAPLLDNLTSALNKVYQRKGVNISLDISPEISFVGEQNDFVEVMGNVLDNACKYCLEFVEISARQTDEHLYIVVEDDGPGIPLSKREVIFDRGQRVDTLRPGQGVGLAVAREITEQYEGKIVAGESMLGGARMEVIFGRQHSAPKDE

The other results are listed elsewhere or left out.

In this experiment the parent is B1. Briefly: enrichment ratio after two sorts for PhoP signalling (ratio (wild type AVST 3.29)); higher = more functional. The note with it: with PhoP (E. coli).
In the case of TSRM, the enrichment ratio is at most 0.25. The same measure for ITSP: at most 0.25. The same measure for KVKV: at most 0.25. With TQKW, the enrichment ratio was at most 0.25. For TGVE, the enrichment ratio was at most 0.25. The result for VRNN reads at most 0.25; that for LWAN, at most 0.25. In the case of PNET, the enrichment ratio was at most 0.25. The result for YLKW reads at most 0.25. On to LCCA, for which the enrichment ratio was at most 0.25. The result for GWVD reads at most 0.25; that for GYDH, at most 0.25; that for QLPP, at most 0.25. The same measure for WPCQ: at most 0.25; for VDIV: at most 0.25. The result for EDGY reads at most 0.25; that for RCFL, 0.39. Consider LRMP, for which the enrichment ratio is at most 0.25.

For MALY, the enrichment ratio is 0.548. With KAES, the enrichment ratio was at most 0.25. With HLLN, the enrichment ratio was at most 0.25.

YETR: the enrichment ratio is at most 0.25. As for LPHW, the enrichment ratio is at most 0.25. For KCMH, the enrichment ratio was at most 0.25. Regarding SYAQ, the enrichment ratio is at most 0.25. The same measure for RTPK: at most 0.25; for RMAT: at most 0.25; for FCLT: 1.39. As for YVSQ, the enrichment ratio was at most 0.25.

In the case of SDRR, the enrichment ratio is at most 0.25. The result for INED reads at most 0.25; that for ICKV, at most 0.25; that for SMRQ, at most 0.25. The result for MEYE reads at most 0.25. As for PPPH, the enrichment ratio was at most 0.25. Regarding PIYH, the enrichment ratio is at most 0.25. For the variant KRGR, the enrichment ratio was at most 0.25. For THLW, the enrichment ratio was at most 0.25. Take IGSY: the enrichment ratio was at most 0.25. With GIAY, the enrichment ratio turned out to be 4.02. The result for NMCH reads at most 0.25; that for TQPS, at most 0.25; that for ISSV, 0.418. Consider FQNG, for which the enrichment ratio was at most 0.25. The result for WNSA reads at most 0.25. The same measure for NDPI: at most 0.25; for AFWK: at most 0.25.

On to HKLV, for which the enrichment ratio is 0.341. Take SDLS: the enrichment ratio stood at 5.57.

Consider PGRM, for which the enrichment ratio is at most 0.25.

Consider TWSE, for which the enrichment ratio is at most 0.25. Consider SKHM, for which the enrichment ratio is at most 0.25. The same measure for YSMD: at most 0.25. Take IQSQ: the enrichment ratio was at most 0.25.

In the case of FPHL, the enrichment ratio is at most 0.25.

On to KVQV, for which the enrichment ratio is at most 0.25. Take HQQS: the enrichment ratio is at most 0.25. On to AQTI, for which the enrichment ratio was determined as 3.65. The same measure for GCSQ: 0.849; for DWKH: at most 0.25.

As for IICS, the enrichment ratio is at most 0.25.

As to YDHG, the enrichment ratio was at most 0.25.

On to TMVG, for which the enrichment ratio was at most 0.25. With PHPV, the enrichment ratio was at most 0.25. The result for EYWH reads at most 0.25; that for IMLP, at most 0.25. Take GKHD: the enrichment ratio is at most 0.25. On to FARP, for which the enrichment ratio was at most 0.25.

As for DTTH, the enrichment ratio is at most 0.25. SPYH: the enrichment ratio is at most 0.25. Consider VEPT, for which the enrichment ratio is at most 0.25. Turning to DLFP, the enrichment ratio is at most 0.25. The same measure for STGW: at most 0.25; for AIFS: at most 0.25; for EFMF: at most 0.25. The result for TRNR reads at most 0.25.

As to PQYR, the enrichment ratio was at most 0.25. The same measure for GLDP: at most 0.25. The same measure for SILH: 3.1. The result for MYRM reads at most 0.25; that for NPKS, at most 0.25.

For RKRY, the enrichment ratio was at most 0.25.

For QFTF, the enrichment ratio was at most 0.25. The same measure for PNFC: at most 0.25; for IMKI: at most 0.25. For the variant EDYN, the enrichment ratio was at most 0.25.

As to PEFF, the enrichment ratio was at most 0.25.

SRRT: the enrichment ratio was at most 0.25. Take GYEM: the enrichment ratio is at most 0.25. The same measure for RNHH: at most 0.25. The same measure for LDSW: 0.344; for GYCM: at most 0.25. On to LNMQ, for which the enrichment ratio was at most 0.25. The same measure for QPMM: at most 0.25. In the case of QRNM, the enrichment ratio is at most 0.25. The result for LSYV reads 4; that for QQYQ, at most 0.25. As to SSGM, the enrichment ratio was found to be 13.4. With SCSR, the enrichment ratio worked out at 6.9.

As for SDPE, the enrichment ratio was at most 0.25.

As for WDTE, the enrichment ratio is at most 0.25. The same measure for PWAM: at most 0.25. With YVWR, the enrichment ratio was at most 0.25.

For VAIA, the enrichment ratio was at most 0.25. On to GITA, for which the enrichment ratio came to 7.39.

As to DVLN, the enrichment ratio was at most 0.25.

RFCI: the enrichment ratio was at most 0.25. The result for DATE reads at most 0.25. In the case of WEYT, the enrichment ratio is at most 0.25. The result for SMMR reads 2.27. For YKRP, the enrichment ratio was at most 0.25. The result for ETDQ reads at most 0.25; that for LRNK, at most 0.25. Take REPY: the enrichment ratio is at most 0.25. With GWRN, the enrichment ratio is at most 0.25.

On to RYGD, for which the enrichment ratio was at most 0.25. The result for ECVL reads at most 0.25; that for VWWA, at most 0.25. The result for MLWM reads at most 0.25; that for NRLT, at most 0.25. The same measure for GYVS: at most 0.25; for LLSK: at most 0.25; for WFEA: at most 0.25. For VFEY, the enrichment ratio came out at 0.839. The result for PIQS reads at most 0.25. Consider LFYG, for which the enrichment ratio is at most 0.25.

Consider ISDH, for which the enrichment ratio is at most 0.25. The result for VDHQ reads at most 0.25; that for MDNC, at most 0.25; that for AALS, 9.98.

Take WRCK: the enrichment ratio is at most 0.25. Regarding LDWR, the enrichment ratio was at most 0.25. The result for GFEY reads at most 0.25; that for TQNM, 5.21; that for QHAT, at most 0.25. With NKDQ, the enrichment ratio was at most 0.25.

Take MKFG: the enrichment ratio was at most 0.25.

With SKQD, the enrichment ratio is at most 0.25.

Take QIID: the enrichment ratio is at most 0.25. The same measure for FMCT: at most 0.25; for KHLC: at most 0.25; for NNNL: at most 0.25. For the variant KQWY, the enrichment ratio was at most 0.25. The same measure for NDCD: at most 0.25; for WNGS: at most 0.25. As to LKEW, the enrichment ratio was at most 0.25. In the case of HACL, the enrichment ratio was at most 0.25. For KFMW, the enrichment ratio is at most 0.25. NQCY: the enrichment ratio was at most 0.25. For SYYW, the enrichment ratio is at most 0.25.

In the case of TNKK, the enrichment ratio was at most 0.25. With MHTM, the enrichment ratio is at most 0.25. The same measure for FAWL: at most 0.25.
